# According to ChEMBL document CHEMBL4888484, “Replenishing the malaria drug discovery pipeline: Screening and hit evaluation of the MMV Hit Generation Library 1 (HGL1) against asexual blood stage Plasmodium falciparum ,using a nano luciferase reporter read-out” (2022):
# Screen size: about 150,000 compounds; about 540 (0.36%) showed an effect of 50% or more. This is one part of the list.
# Tested on: Plasmodium falciparum
# Experiment: Primary screen in NF54 nanoGlo assay, in single point, at 2uM, 72h; a lower Z score goes with more inhibition
# Assay type: functional, Erythrocyte
# Conditions: timepoint 72 hour
SMILES,% Inhibition [%],Z score
Cc1noc2nc(C3CC3)cc(C(=O)N[C@@H](Cc3ccccc3)C(N)=O)c12,-1,0.17
O=C(Cc1ccc2c(c1)OCC2)N1CCc2ccccc2C1,-1,0.11
CCN(CC)[C@@H](C)CNC(=O)c1cc(Cl)c[nH]1,-42,4.9
N#C[C@@H](N)c1cccc(C(F)(F)F)c1,-5,0.6
CC(C)C(=O)N1CCC(CNC(=O)N(CCO)Cc2ccccc2F)CC1,-2,0.34
CCc1nnc(CN2CCC[C@H]2c2nc3ccccc3s2)o1,-12,1.17
CNC(=O)C1CCN(CC(=O)N2CCC(Cc3ccccc3)CC2)CC1,-3,0.58
Cc1cnn(CCC(=O)N2CCC(c3nnc4n3CCN(C(=O)C(C)C)CC4)CC2)c1,3,-0.54
Cc1cccc(NC2CCCCCC2)n1,-15,2.9
CCn1cc(CC(=O)N2CCc3ccccc32)cn1,-4,0.67
C/C(=C\Cn1cnc(C(N)=O)c1N)COC(C)(C)C,-30,3.54
CC(C)CC(CNC(=O)NCC1CCCO1)N(C)C (stereo not drawn),-10,1.35
Cc1cccc(CN2CCCN(c3cccc(NC(=O)C(C)C)c3)C2=O)c1,-7,1.01
CCN(CC)Cc1cnc2c(C(=O)N3CCCCCCCC3)cnn2c1,-5,1
CC(C)N1CCN(C(=O)[C@@]23CCC=C2N(C2CCCC2)C(=O)CC3)CC1,-8,1.29
C[C@@H](C(=O)NC(C)(C)C)N1CCC(O)(C(F)(F)F)CC1,2,-0.31
Cc1noc(C)c1Cc1nc(C2CCOCC2)nn1CC(F)(F)F,0,0.07
O=C(O)c1nn(-c2ccc3c(c2)OCO3)c2ccccc2c1=O,-6,0.92
CCc1csc(Cn2cc(-c3cc(C#CCO)cs3)nn2)n1,-7,1.13
COc1cc(=O)[nH]cc1C(=O)N1C[C@H](C)Oc2ccccc21,-5,0.96
CCOc1cc(CNc2cc(C)ccc2C)cc(Br)c1OCC(=O)Nc1ccccc1,-2,0.3

SMILES,% Inhibition [%],Z score
C[C@H](NCCC1Cc2ccccc2C1)c1cnccn1,-1,0.16
Cc1ccc(NC(=O)c2ccc3c(c2)nnn3Cc2ccccc2C)nc1,-10,0.98
CC(C)(C(=O)Nc1nc(-c2ccsc2)ns1)C(F)(F)F,-3,0.38
COC1CC(Oc2ccccc2C(N)=O)C1 (stereo not drawn),1,-0.16
NC(=O)c1c(NC(=O)c2csc3c2CCCC3)sc2c1CCCC2,5,-0.55
COC[C@@H]1[C@H](C(=O)Nc2ccc3c(c2)OCCO3)CCCN1C,-16,1.91
CCCn1nc(C)cc1CN(C)C(=O)c1ccc(CC2CCN(S(C)(=O)=O)CC2)cc1,-8,1.36
Cc1nn(C)c(C)c1CN1CC[C@H](O)CC(C)(C)C1,4,-0.8
Cc1cc(CNC(=O)c2ccc(S(=O)(=O)N(C)C)cc2)ncn1,17,-2.18
CCOc1ccc(-n2ccn3c(C[C@@H](C)CC(=O)Nc4cccc(F)c4)nnc3c2=O)cc1,4,-0.61
Cc1nnc(CN(CCN2CCOCC2)c2ccccc2)o1,-5,0.58
CCN(CC)CCNC(=O)c1nc(C2CC2)no1,3,-0.29
Cc1nn(C)c(C)c1CN1CCN(Cc2noc(C3CCCCC3)n2)CC1,5,-0.73
Cn1c(N)c2c(=O)n(C)c(-c3cccc4ccccc34)cc2c(C#N)c1=O,-14,2.56
Cc1nc(N2CCC[C@H](C(=O)Nc3cccc(Cl)c3)C2)c2c(C)c(C)oc2n1,4,-0.52
CC(C)Oc1ccccc1CC(=O)N[C@H]1CC[C@H](CO)CC1,-3,0.27
Cc1snnc1C(=O)NCc1cccs1,1,-0.1
Cc1cc(=O)n(CC(=O)Nc2ccccc2C)c(N2CCc3ccccc3C2)n1,-19,1.7
O=C(Nc1ccccc1N1CCCN(Cc2ccc(OC(F)(F)F)cc2)C1=O)c1ccccc1Cl,-2,0.4
COc1ccc(N[C@H]2CCCN(Cc3cc(F)ccc3-n3nc(C)cc3C)C2)cc1OC,-5,0.61
Cc1ccc(-c2c(C)nn3c2NC(=O)CCC3=O)cc1S(=O)(=O)NCCCc1ccccc1,13,-1.5

SMILES,% Inhibition [%],Z score
COc1ccc(F)cc1C(=O)N1CCn2nc(CCC(=O)NC(C)C)cc2C1,16,-1.98
CC(C)[C@](C)(NCc1nc(C(C)(C)C)co1)C(N)=O,-8,1.48
CC(C)Oc1c(Cl)cc(CN(C)[C@H]2CCN(C)C2)cc1Cl,-13,2.58
CCN(CCOc1c(C)cccc1C)C(=O)NCCN1CCCC1=O,-11,1.75
COc1ccc(OCC(=O)Nc2cc(C)nn2-c2nc3c(cnn3-c3ccc(C)cc3)c(=O)[nH]2)cc1,-15,2.54
C[C@@H](Cc1cccnc1)NC(=O)c1cc(COc2c(F)cccc2F)on1,14,-1.78
CCC(C)(C)COC(=O)c1cnn(C)c1C(F)F,2,-0.17
CN(Cc1c(Cl)ccc(O)c1Cl)C[C@H]1CC(=O)N(C)C1,-13,2.02
CCc1ccc(C(=O)N(C)[C@@H](C)CS(=O)(=O)CC)o1,-5,0.61
COc1c(F)cc(NC(=O)c2ccc(Oc3ccncc3)c(Cl)c2)cc1F,-16,1.82
CC(=O)Nc1cccc(NC(=O)c2cc(O)ncn2)c1,7,-1.2
CCOC(=O)c1cc(-c2ccc(N3CCN(C(=O)c4c(F)cc(F)cc4F)CC3)cc2)n(-c2ccc(F)cc2)n1,-7,1.18
O[C@H]1CCN(c2nc3ccc(Cl)cc3s2)C[C@@H]1O,9,-1.37
Cc1noc(-c2cc(S(=O)(=O)Nc3ccc(F)cc3Cl)c(C)s2)c1C,6,-1.06
C[C@@H](C(=O)Nc1nccs1)c1ccc(C[C@@H]2CCCC2=O)cc1,-6,0.81
CCN1CCN(Cc2nc(C(F)(F)F)no2)[C@H]2CS(=O)(=O)C[C@H]21,-23,2.08
CCOc1ccccc1C=C(C(=O)NCCc1ccc(OC)cc1)C(=O)NCCc1ccc(OC)cc1,-6,1.03
O[C@H]1CN(CC2CCCCC2)CC[C@@H]1N1CCCCCC1,16,-2.02
Cc1noc(C)c1CCc1nc(C2CC2)nn1CCO,-6,1.09
CCc1ncc(CN[C@@H](Cc2ccc(C)cc2)c2cccnc2)s1,-8,1.07
Cn1cc(C(=O)N2CC[C@@]3(CCCN(C4CCCCC4)C3=O)C2)cn1,-9,1.09

SMILES,% Inhibition [%],Z score
CN(CCCNC(=O)Nc1cn(C)nn1)c1ccccc1,-8,1.64
CN(Cc1ccc2cc(O)ccc2c1)Cc1cc[nH]n1,-16,1.45
C[C@@H](c1nccs1)N(C)C(=O)NCC1(CN2CCOCC2)CC1,11,-1.48
Cc1ccc(CNC(=O)c2ccc(S(=O)(=O)N[C@H]3CCOC3)cc2)o1,-5,0.47
CC1(C)C(NC(=O)Nc2ccc(N3CCCC3)c(F)c2)C2CCOC21 (stereo not drawn),-8,0.97
O=C(NCc1ccccn1)c1ccc2nc(C3CC3)oc2c1,-10,1.36
O=C(O)CC[C@@H]1CN(Cc2cccc(Cl)c2)CC[C@@H]1N1CCN(c2ccccc2F)CC1,5,-0.94
Cc1ccc(-c2noc(-c3c(O)c4ccccc4n(C)c3=O)n2)cc1,-1,0.15
O=C(Nc1ccc(F)cc1)N[C@H]1CCN(c2ccc(C(F)(F)F)cn2)C1,-12,2.31
CC(C)(C)NC(=O)C(=O)NCc1ccc(Cl)cc1Cl,-6,0.82
Cc1nc(C(=O)NCCc2cn[nH]c2)cs1,19,-2.45
Cc1ncc(C(=O)N2CC[C@H](NC(=O)OCc3ccccc3)C2)c(C)n1,-7,0.97
CC(C)c1ccc(-c2noc(CN3CCC[C@H]3c3cccs3)n2)cc1,-8,1.11
CCCc1cncnc1NCC[C@H]1CCCOC1,-7,1.13
Cc1ccc(NC(=O)c2c(C)nc3sc(C(=O)NCc4ccccc4)c(N)c3c2-c2cccnc2)c(C)c1,21,-3.35
O=C(C[C@@H]1NC(=O)N(c2cc(F)c(F)c(F)c2)C1=O)N1CCc2ccccc2C1,-6,0.75
Cc1ccc(Cn2c3c(c(C)c2C(=O)NCc2cccc(C(F)(F)F)c2)CCCC3)cc1,-13,1.23
CNC(=O)CNC(=O)NC1CC2CCC(C)(C)c3cccc1c32 (stereo not drawn),-16,2.48
Cc1ccc(NC(=O)CO[C@H](C)CNS(C)(=O)=O)cc1,-5,0.6
COc1ccc(-c2csc(NC3=NCCCCC3)n2)cc1,-9,0.87
CCc1nc([C@@H]2COCCO2)n(-c2ccc3nc(C)sc3c2)n1,1,-0.12
